Data on 28 compounds can be found in the antibiotic and cytotoxicity screens of Wong et al. (2023).

This is one part of the list.

The subject of one experiment is HSkMC. Briefly: cytotoxicity call (relative viability < 0.9). To be noted: 10 µM.
The next experiment concerns HepG2. The experiment can be described thus: cytotoxicity call (relative viability < 0.9). The note with it: 10 µM.
The test system of another experiment is S. aureus RN4220. Briefly: growth inhibition call (relative growth <= 0.2). To be noted: 50 µM.

As for `C[C@@H]1CN([C@H](C)CO)C(=O)Cc2cc(NS(=O)(=O)c3cccs3)ccc2O[C@H]1CN(C)C(=O)Nc1cccc2ccccc12`, the cytotoxicity call in the experiment on HSkMC and in the experiment with HepG2 was “inactive” in each case. For the same compound, the growth inhibition call with S. aureus RN4220 is “inactive”.
As for `C[C@@H]1CCCCO[C@@H](CN(C)Cc2ccncc2)[C@@H](C)CN([C@H](C)CO)C(=O)c2cc(NC(=O)Nc3cccc4ccccc34)ccc2O1`, the cytotoxicity call with HSkMC and with HepG2 was “inactive” each time. The growth inhibition call in the experiment with S. aureus RN4220 was “inactive”.
For `COCC(=O)Nc1ccc2c(c1)C(=O)N(C)C[C@@H](OC)[C@H](C)CN(Cc1ccccc1F)[C@@H](C)CO2`, the cytotoxicity call with HSkMC and with HepG2 was “inactive” in each case. Moreover, in the experiment on S. aureus RN4220, the growth inhibition call was “inactive”.
Turning to `CC(C)NC(=O)Nc1ccc2c(c1)C(=O)N([C@@H](C)CO)C[C@@H](C)[C@@H](CN(C)C(=O)Nc1ccccc1)OCCCC[C@H](C)O2`, the cytotoxicity call in the experiment with HSkMC and with HepG2 was “inactive” throughout. Further, the growth inhibition call in the experiment on S. aureus RN4220 is “inactive”.
For `Cc1ccc(S(=O)(=O)Nc2ccc3c(c2)C(=O)N([C@@H](C)CO)C[C@@H](C)[C@@H](CN(C)C(=O)Nc2ccc(C(F)(F)F)cc2)OCCCC[C@@H](C)O3)cc1`, the cytotoxicity call in the experiment on HSkMC and in the experiment with HepG2 was “inactive” each time. In the experiment on S. aureus RN4220, the growth inhibition call was “inactive”.
With `CC(C)(C)OC(=O)CC[C@]1(C(=O)NCCN2CCOCC2)COC(c2ccc(OCCCO)cc2)=N1`, the cytotoxicity call in the experiment on HSkMC and in the experiment with HepG2 was “inactive” each time. Also, in the experiment on S. aureus RN4220, the growth inhibition call was “inactive”.
Take `COc1cccc(C#Cc2ccc3c(c2)O[C@@H](CN(C)C(=O)c2ccccn2)[C@H](C)CN([C@@H](C)CO)S3(=O)=O)c1`: the cytotoxicity call in the experiment on HSkMC and in the experiment with HepG2 was “inactive” each time. The growth inhibition call in the experiment with S. aureus RN4220 is “inactive”.
Consider `CCOC(=O)c1cncc(C(=O)O)c1`, for which the cytotoxicity call in the experiment on HSkMC and in the experiment with HepG2 was “inactive” each time. The growth inhibition call with S. aureus RN4220 is “inactive”.
Regarding `O=C(Cc1ccncc1)NCC[C@@H]1CC[C@@H](NC(=O)C2CCOCC2)[C@H](CO)O1`, the cytotoxicity call with HSkMC and in the experiment on HepG2 was “inactive” each time. For the same compound, the growth inhibition call in the experiment on S. aureus RN4220 is “inactive”.
As to `C[C@@H]1CCCCO[C@@H](CN(C)Cc2ccc(C(=O)O)cc2)[C@H](C)CN([C@H](C)CO)C(=O)c2cc(NC(=O)c3ccccc3)ccc2O1`, the cytotoxicity call with HSkMC and in the experiment with HepG2 was “inactive” throughout. In addition, the growth inhibition call with S. aureus RN4220 is “inactive”.
Regarding `OCC(CO)N[C@H]1C[C@](O)(CO)[C@@H](O)[C@H](O)[C@H]1O`, the cytotoxicity call in the experiment with HSkMC and in the experiment on HepG2 was “inactive” in each case. The growth inhibition call in the experiment on S. aureus RN4220 is “inactive”.
As to `COc1cccc(S(=O)(=O)N(C)C[C@H]2Oc3ncc(-c4cccc(C(=O)N(C)C)c4)cc3C(=O)N([C@H](C)CO)C[C@@H]2C)c1`, the cytotoxicity call with HSkMC and with HepG2 was “inactive” each time. Moreover, the growth inhibition call in the experiment with S. aureus RN4220 is “inactive”.
In the case of `C[C@H]1CN([C@@H](C)CO)C(=O)c2cc(NS(C)(=O)=O)ccc2O[C@@H]1CN(C)C(=O)Nc1ccc2c(c1)OCO2`, the cytotoxicity call in the experiment on HSkMC and with HepG2 was “inactive” throughout. For the same compound, in the experiment with S. aureus RN4220, the growth inhibition call was “inactive”.
`CN(C)CC(=O)N1[C@@H]2Cn3c(ccc(C4=CCCC4)c3=O)[C@H]1[C@@H](C(=O)NCC1CC1)[C@@H]2CO`: the cytotoxicity call in the experiment on HSkMC and in the experiment on HepG2 was “inactive” throughout. In addition, in the experiment on S. aureus RN4220, the growth inhibition call was “inactive”.
Turning to `O=C(C[C@H]1CC[C@H]2[C@@H](COC[C@@H](O)CN2C(=O)c2ccc3c(c2)OCO3)O1)NC1Cc2ccccc2C1`, the cytotoxicity call in the experiment on HSkMC and with HepG2 was “inactive” throughout. In the experiment with S. aureus RN4220, the growth inhibition call is “inactive”.
As for `COc1ccc(CN(C)C[C@H]2Oc3ccc(NS(=O)(=O)c4cn(C)cn4)cc3CC(=O)N([C@@H](C)CO)C[C@H]2C)cc1`, the cytotoxicity call with HSkMC and in the experiment with HepG2 was “inactive” throughout. For the same compound, the growth inhibition call with S. aureus RN4220 is “inactive”.
Turning to `O=C(O)CCSc1n[nH]c(=O)[nH]c1=O`, the cytotoxicity call in the experiment with HSkMC and in the experiment on HepG2 was “inactive” in each case. Moreover, the growth inhibition call with S. aureus RN4220 was “inactive”.
Regarding `C(=N\c1cc(-c2ccccc2)nn1-c1ccccc1)/c1ccccc1`, the cytotoxicity call with HSkMC and in the experiment with HepG2 was “inactive” in each case. Also, the growth inhibition call with S. aureus RN4220 is “inactive”.
In the case of `O=C(C[C@@H]1CC[C@H]2[C@@H](COC[C@@H](O)CN2C(=O)Nc2cc(Cl)cc(Cl)c2)O1)N1CCOCC1`, the cytotoxicity call with HSkMC and in the experiment with HepG2 was “inactive” in each case. Moreover, in the experiment with S. aureus RN4220, the growth inhibition call was “active”.
With `C[C@@H]1CN([C@H](C)CO)C(=O)Cc2cc(NS(=O)(=O)c3cn(C)cn3)ccc2O[C@H]1CN(C)C`, the cytotoxicity call with HSkMC and in the experiment on HepG2 was “inactive” in each case. Also, the growth inhibition call with S. aureus RN4220 is “inactive”.
`C[C@@H]1CN([C@@H](C)CO)C(=O)c2cc(NC(=O)CCN3CCOCC3)ccc2O[C@H]1CN(C)S(=O)(=O)c1ccccc1`: the cytotoxicity call in the experiment on HSkMC and in the experiment on HepG2 was “inactive” each time. Also, the growth inhibition call in the experiment with S. aureus RN4220 is “inactive”.
On to `O=C(C[C@@H]1CC[C@@H]2[C@H](COC[C@@H](O)CN2C(=O)Nc2ccc(Cl)cc2)O1)NC1Cc2ccccc2C1`, for which, in the experiment with HSkMC, the cytotoxicity call is “inactive”. Moreover, the cytotoxicity call in the experiment with HepG2 is “active”. Further, in the experiment on S. aureus RN4220, the growth inhibition call was “inactive”.
For `C[C@H](CO)N1C[C@H](C)[C@@H](CN(C)Cc2ccc(Cl)c(Cl)c2)Oc2ccc(NS(=O)(=O)c3cccs3)cc2CC1=O`, the cytotoxicity call in the experiment with HSkMC and in the experiment with HepG2 was “inactive” throughout. Moreover, the growth inhibition call in the experiment with S. aureus RN4220 was “inactive”.
As to `C[C@@H]1CCCCO[C@@H](CN(C)Cc2ccc(Cl)c(Cl)c2)[C@@H](C)CN([C@H](C)CO)C(=O)c2cc(NC(=O)Cc3ccccc3)ccc2O1`, the cytotoxicity call in the experiment on HSkMC and in the experiment on HepG2 was “active” in each case. In addition, the growth inhibition call with S. aureus RN4220 is “inactive”.
Regarding `C=CC1CN2CCC1CC2C(O)c1ccnc2ccc(OC)cc12.Cl` (centres undefined), the cytotoxicity call with HSkMC was “inactive”. In addition, in the experiment on HepG2, the cytotoxicity call is “active”. In addition, in the experiment on S. aureus RN4220, the growth inhibition call was “inactive”.
As to `CN1CCN(C(=O)C[C@@H]2C=C[C@H](NC(=O)c3ccc4c(c3)OCO4)[C@H](CO)O2)CC1`, the cytotoxicity call in the experiment on HSkMC (human skeletal muscle cells) and in the experiment with HepG2 was “inactive” throughout. Also, the growth inhibition call in the experiment with S. aureus RN4220 is “inactive”.
As to `Cc1cc(C(=O)Nc2cccc3c2O[C@@H](CN(C)C(=O)Nc2ccccc2)[C@@H](C)CN([C@H](C)CO)C3=O)n(C)n1`, the cytotoxicity call with HSkMC and with HepG2 was “inactive” throughout. Also, the growth inhibition call in the experiment with S. aureus RN4220 was “inactive”.
Consider `CC(C)C[N+]1(C)Cc2ccccc2C1`, for which the cytotoxicity call with HSkMC and in the experiment on HepG2 was “inactive” throughout. The growth inhibition call in the experiment on S. aureus RN4220 was “inactive”.
